Assay results published in PubChem BioAssay AID624296 (National Center for Advancing Translational Sciences (NCATS), 2012).
Among all 350,000 compounds or so, about 9,900 (2.8%) were called active. Inconclusive results, whose numbers are uncertain, are shown with a selection of clear calls. Calls follow the shape of the dose curve; as a rule, active = well fitted activation curve with a large enough effect; inconclusive = small, poorly fitted or top-dose-only effect; inactive = no such curve, though single readings can be large or run the other way. Potencies of inconclusive entries are left out as doubtful fits.
Potency is read from the fitted curve at half-maximal effect; tags tell the direction and shape of the fitted curve.

Assay: A quantitative high throughput screen for small molecules that induce DNA re-replication in MCF 10a normal breast cells. Also: nearly all actives have a fitted effect of over 50% in size.
Conditions: MCF 10A DNA re-replication, Hoechst nuclear intensity, 48 h; series mostly up to 46.1 µM
With `O=c1c2c3nc4ccccc4nc3n(/N=C/c3ccccn3)c2ncn1-c1ccccc1` the Potency was active: 3.26 µM.
In the case of `O=C(CN1CCC(n2nnc3cc(F)ccc32)CC1)NC1CCCCC1`, the Potency was “inactive”.
With `Cc1ccc(/C=C/C(=O)NC(=S)Nc2ccccc2C(=O)NC2CCCCC2)cc1` the Potency was inconclusive [activator, single point].
In the case of `O=C(c1cccc(F)c1)N1CCN(c2cccc(Cl)c2)CC1`, the Potency was inconclusive [activator, single point].
In the case of `CC(=O)N(c1ccc(Cl)cc1)c1c[nH]c2ccccc12`, the Potency was inconclusive [activator, full curve].
In the case of `O=C(Nc1nc(-c2ccccc2)cs1)c1ccc2c(c1)S(=O)(=O)c1ccccc1C2=O`, the Potency was inconclusive [activator, single point].
With `Clc1ccccc1/C=C/c1nc(-c2cccnc2)no1` the Potency was “inactive”.
In the case of `c1ccc2c(SCc3cn4cccnc4n3)ncnc2c1`, the Potency was “inactive”.
For `O=C(NN1S(=O)(=O)c2ccccc2S1(=O)=O)c1ccc(Br)cc1`, the Potency was inconclusive [activator, partial curve, poor fit].
With `O=[N+]([O-])c1cc(S(=O)(=O)Nc2ccccc2)ccc1NCc1ccccc1` the Potency was inconclusive [activator, single point].
With `Cc1cc(C(=O)CN2C(=O)NC(C)(CC(C)C)C2=O)c(C)n1-c1ccc2c(c1)OCO2` (stereo not drawn) the Potency was inconclusive [activator, single point].
With `COc1cccc(NC(=O)C(Sc2nnc3ccccn23)c2ccccc2)c1` (stereo not drawn) the Potency was inconclusive [activator, partial curve, poor fit].
For `O=C(c1ccccc1)N(Cc1cccs1)C1CCS(=O)(=O)C1` (stereo not drawn), the Potency was inconclusive [activator, partial curve, poor fit].
With `O=C(CNc1ccc2ccccc2c1)N/N=C/C=C/c1cccc([N+](=O)[O-])c1` the Potency was inconclusive [activator, single point].
In the case of `COc1ccc(COC(=O)c2ccc(S(=O)(=O)N3CCC(C)CC3)cc2)cc1`, the Potency was active: 16.4 µM.
With `O=c1[nH]c(SCc2ccccc2)nc2[nH]ncc12` the Potency was “inactive”.
For `CC1CCN(c2ccc3c(c2)S(=O)(=O)c2cccc(C(=O)NCc4cccc(F)c4)c2C3=O)CC1`, the Potency was inconclusive [activator, partial curve].
For `COc1cccc(CN2CCNC(=O)C2CC(=O)NC2CCCCC2)c1OC` (stereo not drawn), the Potency was “inactive”.
For `COc1ccccc1CN(C)C(=O)c1ccccc1SCC(=O)N1CCCC1`, the Potency was “inactive”.
For `CCN(CC(=O)NCc1cccs1)C(=O)c1ccc(S(=O)(=O)Nc2cccc(C)c2C)cc1`, the Potency was “inactive”.
In the case of `Cc1c(C(=O)N2CCc3ccccc3C2)sc2nc(-c3ccccc3)cn12`, the Potency was inconclusive [activator, single point].
For `CCCc1cc(=O)oc2c(CN3CCN(C)CC3)c(O)ccc12`, the Potency was inconclusive [activator, single point].
In the case of `Cc1ccc(OCCN2CCCCCC2)c(C)c1`, the Potency was inconclusive [activator, single point].
In the case of `CCOC(=O)c1c(C)c(C(=O)N2CCN(C(=O)c3ccco3)CC2)c(C)n1C`, the Potency was “inactive”.
With `CCOC(=O)c1c(C)[nH]c(C)c1C(=O)COC(=O)/C=C/c1cccc(F)c1` the Potency was “inactive”.
In the case of `CC(OC(=O)CSc1ccc([N+](=O)[O-])cc1)C(=O)NCc1ccccc1` (stereo not drawn), the Potency was inconclusive [activator, partial curve, poor fit].
In the case of `O=[N+]([O-])c1c(O)c(Cl)cc(Cl)c1Cl` (tested in a mixture with another compound), the Potency was inconclusive [activator, single point].
With `CCc1noc(C)c1C(=O)NNC(=O)COc1ccc(Br)cc1` the Potency was inconclusive [activator, single point].
For `CO/N=C(/CNC(=O)c1ccccc1Cl)c1ccc(Cl)cc1`, the Potency was “inactive”.
For `Cc1ccc(C2(C)NC(=O)N(CC(=O)NC(=O)NC(C)(C)C)C2=O)cc1` (stereo not drawn), the Potency was “inactive”.
In the case of `N#CC1(Cc2ccc(Cl)cc2)c2ccccc2C=CN1C(=O)c1ccccc1` (stereo not drawn), the Potency was inconclusive [activator, single point].
In the case of `C=CC[n+]1c(-c2ccc(Cl)cc2Cl)csc1Nc1ccc(NC(C)=O)cc1`, the Potency was inconclusive [activator, partial curve, poor fit].
With `CNC(=O)c1c(NC(=O)c2ccc3ncsc3c2)sc(C)c1C` the Potency was inconclusive [activator, partial curve, poor fit].
In the case of `N#Cc1ccc(-c2ccccc2)nc1SCC(=O)c1cccc(Cl)c1`, the Potency was active: 14.1 µM.
For `O=C(NCc1cccnc1)/C(=C/c1ccc(-c2ccc(Cl)cc2)o1)S(=O)(=O)c1ccccc1`, the Potency was active: 9.2 µM.
With `COc1cc(C2C(C#N)=C(N)Oc3c2ccc2ccccc32)ccc1OCC(=O)Nc1ccc(C)cc1` (stereo not drawn) the Potency was inconclusive [activator, partial curve, poor fit].
In the case of `Cc1ccc(C)c(S(=O)(=O)N2CCN(C(=O)/C=C/c3ccco3)CC2)c1`, the Potency was inconclusive [activator, single point].
In the case of `CN(C)C1=NCCN1CCC1CCCC1`, the Potency was “inactive”.
In the case of `COc1cccc(C(=O)N/N=C(\C)c2ccc(NC(=O)Cc3ccccc3)cc2)c1OC`, the Potency was inconclusive [activator, single point].
With `CC1CN(c2nc3ccccc3nc2SCC(=O)Nc2ccc(F)cc2)CC(C)O1` (stereo not drawn) the Potency was “inactive”.
In the case of `O=C(NCCc1ccccc1)c1ccc(-c2ccccc2C(F)(F)F)o1`, the Potency was inconclusive [activator, single point].
In the case of `COc1cccc(OCc2cc(C(=O)N(Cc3ccccc3)CC3CC3)no2)c1`, the Potency was inconclusive [activator, single point].
For `COc1ccc(N2CCN(C(=O)[C@H](C)NC(=O)c3ccccc3Cl)CC2)cc1`, the Potency was inconclusive [activator, full curve, poor fit].
In the case of `COc1ccc(/C(C)=N/NC(=O)c2ccncc2)cc1[N+](=O)[O-]`, the Potency was inconclusive [activator, single point].
For `CCOc1cc(C(=O)OC(C)C(=O)Nc2ncc(Cl)cc2Cl)ccc1OCC(=O)N1CCOCC1` (stereo not drawn), the Potency was inconclusive [activator, partial curve, poor fit].
With `O=Nc1onc(-c2ccc([N+](=O)[O-])cc2)c1NO` the Potency was “inactive”.
With `C/C(=N\Nc1nc(C)c(C)s1)c1ccc([N+](=O)[O-])cc1` the Potency was inconclusive [activator, partial curve, poor fit].
With `COc1ccc(-c2nc(SC)n(C)c(=O)c2C#N)cc1OC` the Potency was inconclusive [activator, partial curve, poor fit].
With `CC1=C(C(=O)OC(C)C)C(c2cccnc2)C2=C(CCCC2=O)N1` (stereo not drawn) the Potency was inconclusive [activator, single point].
In the case of `c1ccc(-c2nc(NCc3cccnc3)c3oc4ccccc4c3n2)cc1`, the Potency was inconclusive [activator, single point].
With `O=C1c2cccc3c(O)ccc(c23)C(=O)N1c1ccc(Cl)cc1` the Potency was inconclusive [activator, single point].
With `N#CC1=C(N)C(C#N)(C#N)[C@H](c2c(F)cccc2F)[C@H]2CC3(CC=C12)OCCO3` the Potency was active: 4.11 µM.
In the case of `CN(C)c1nc(NCc2ccccc2)nc(N/N=C/c2cccc(Br)c2)n1`, the Potency was inconclusive [activator, partial curve].
With `CCn1c(-c2cc(Br)ccc2O)n[nH]c1=S` the Potency was “inactive”.
With `CCc1ccc(S(=O)(=O)NCc2cccs2)cc1` the Potency was inconclusive [activator, single point].
With `CCN1CCN(Cc2cc(=O)oc3ccc(Cl)cc23)CC1` the Potency was “inactive”.
For `COc1ccc(-c2oc3ccccc3c(=O)c2OC(=O)c2ccc(C)cc2)cc1`, the Potency was “inactive”.
For `CCOc1ccc(CN2CCNC(=O)C2CC(=O)NCCc2ccccn2)cc1` (stereo not drawn), the Potency was “inactive”.
With `CCS(=O)(=O)N1CCN(CC2CC3C=CC2C3)CC1` (stereo not drawn) the Potency was inconclusive [activator, partial curve, poor fit].
In the case of `Cc1ccn2c(C=O)c(-c3ccc(F)cc3)c(C=O)c2c1`, the Potency was inconclusive [activator, single point].
With `COc1ccc2c(c1OC)C(=O)N1c3ccccc3C(=O)N(c3ccc(F)cc3)C21` (stereo not drawn) the Potency was inconclusive [activator, single point].
In the case of `C=CCCC(=O)N1C[C@H]2CON(C)[C@H]2C[C@H]1c1cccc(Nc2ccccc2)c1`, the Potency was inconclusive [activator, single point].
With `O=C(C[C@@H]1C/C=C/CC[C@H](Cc2ccc(F)cc2)C(=O)OC[C@@H](Cc2ccccc2)NC1=O)N[C@H](CO)Cc1ccccc1` the Potency was active: 7.31 µM.
In the case of `CC(C)C(NC(=O)CSCc1ccc([N+](=O)[O-])cc1)C(C)C`, the Potency was inconclusive [activator, single point].
For `C[C@]12CC[C@H](O)CC1=CCC1C2CC[C@@]2(C)C1CC[C@@H]2NC(=O)[C@@H](N)Cc1cnc[nH]1` (stereo partly drawn), the Potency was “inactive”.
For `O=C(c1cccc(S(=O)(=O)NCc2ccccc2)c1)N1CCN(c2ccccc2)CC1`, the Potency was active: 6.51 µM.
With `CCN(CC)c1ccc(/C=N/NC(=O)c2ccccn2)cc1` the Potency was inconclusive [activator, single point].
For `Cn1sc(=O)c2cc(S(=O)(=O)NC3CC3)ccc21`, the Potency was inconclusive [activator, single point].
